This is one part of the list. At the low end of the ranking the order means little.

The test concerns the target T1, GST-Rok-C97-191 (UniProt O34857).
T1 sequence: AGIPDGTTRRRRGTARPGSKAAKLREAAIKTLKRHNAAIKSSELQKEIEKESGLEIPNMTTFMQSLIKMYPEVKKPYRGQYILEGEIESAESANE
Description: protein binding microarray.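 Also: rank score from −0.5 (least bound) to 0.5 (best bound).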 The conditions noted are these: Rok is a gene silencer of Bacillus subtilis; high values mean tight binding; most listed sequences are background and not binding sites; double strand, one strand shown.
ACAAATCC had a binding signal of -0.129 E-score. With AAAGTTAG the figure was 0.156 E-score; with CCACCGCA, -0.145 E-score. With CCACTGGA the figure was -0.202 E-score; with ATGACACG, -0.103 E-score. Sequence TCCCTGAA gave a binding signal of -0.252 E-score. With AGCTTTTC the figure was 0.0739 E-score; with TAGAACGA, 0.058 E-score; with GTTGTTGA, 0.0546 E-score. With CGTTTACC the figure was -0.0458 E-score; with GACAACAA, -0.114 E-score; with CCACAAAC, 0.0675 E-score. For GCATACCA, the binding signal worked out at 0.132 E-score. Sequence ATCCAAAG displayed a binding signal of -0.0572 E-score. With CTTCGCGA the figure was -0.246 E-score; with ACCAAGGG, -0.244 E-score. With GCACCGAA the figure was -0.2 E-score.

Sequence ATGGACAC registered a binding signal of 0.0474 E-score. With GATATTCC the figure was 0.151 E-score; with GCTTGCCA, -0.131 E-score; with GCAGGTCA, -0.13 E-score.

GTCGTCGA had a binding signal of 0.00321 E-score. To TACTACTA belongs 0.44 E-score; to CCGCGCGA, -0.225 E-score.

GTTTGGCA gave a binding signal of 0.0167 E-score.

As for CCTGAAGC, the binding signal was -0.0171 E-score. To AAAGAGCT belongs -0.184 E-score; to CTAAACTC, 0.0554 E-score. With CACCCAGA the figure was -0.284 E-score. With CAAACACA the figure was 0.0475 E-score; with AATATAAA, 0.361 E-score. In turn, TAAGCTCA returned a binding signal of -0.0452 E-score. With GATAAGAA the figure was 0.0314 E-score; with AGTGTCGC, -0.105 E-score; with CGTCTAAC, -0.154 E-score.

With AATGGACA, the binding signal is -0.114 E-score. With ACGCTTCA the figure was -0.287 E-score; with ACATCCAC, 0.126 E-score; with GCATTGGA, -0.0963 E-score. AGAATTGG: the binding signal was found to be 0.176 E-score. To CGAGATAC belongs 0.1 E-score. With CGGCTCGC the figure was -0.204 E-score; with GCGCCGAC, -0.109 E-score.

CGTCACCA displayed a binding signal of -0.215 E-score. To AGGCGGGC belongs -0.244 E-score.

AACTAGTA yielded a binding signal of 0.47 E-score. To CAAACCCA belongs 0.0142 E-score; to ACCCTACT, 0.127 E-score; to ACACTTCC, 0.0399 E-score. With CACAGTCC the figure was -0.2 E-score.

For CGGGTTTA, the binding signal was -0.0403 E-score. On to AAAGCGAG, for which the binding signal was -0.169 E-score.

With GCGGTACA, the binding signal was found to be 0.119 E-score. To AATCGAAC belongs 0.139 E-score; to CATTGGAA, -0.0107 E-score. With ATCGCCTG the figure was -0.133 E-score. To GCGTTCTA belongs 0.179 E-score; to TGGACCAA, -0.381 E-score. Sequence CACATTCC registered a binding signal of -0.139 E-score. With TCCCAACA the figure was -0.00841 E-score. In turn, AGCCGGCG had a binding signal of -0.258 E-score. To AGACAAGA belongs -0.0966 E-score.

Regarding GCAGAAAA, the binding signal was determined as 0.0646 E-score.

For AAAACGTG, the binding signal is -0.0318 E-score. Regarding CCTCGGTC, the binding signal was -0.348 E-score. As to CACCGCGA, the binding signal is 0.00941 E-score.

TAGAAAGA gave a binding signal of 0.154 E-score. To CCACGGCC belongs -0.233 E-score; to CTCTAGAG, 0.0157 E-score. With ACTCCTCA the figure was -0.236 E-score; with GGATGACA, -0.12 E-score. With ACAATGAG the figure was 0.0315 E-score. The sequence GCTCTTGA registered a binding signal of -0.133 E-score.

TCAGGAGA yielded a binding signal of -0.166 E-score. As to ATACCCCA, the binding signal was -0.0857 E-score.

For GACCGCGA, the binding signal is -0.229 E-score. As to CCTATTAC, the binding signal came out at 0.247 E-score. With GATGTGAA the figure was 0.0761 E-score; with CACTTCTG, 0.108 E-score. For CCATTGTC, the binding signal is -0.00621 E-score. CTCTTCCC showed a binding signal of -0.187 E-score. The sequence ATGTTGCA had a binding signal of -0.0083 E-score. The sequence ACTGCATC came in with a binding signal of -0.00161 E-score. Turning to CTGATTGC, the binding signal was -0.0195 E-score.

Regarding AGCTAAAC, the binding signal turned out to be 0.154 E-score. Regarding ACATCGAA, the binding signal was 0.0242 E-score. To CTCCATGA belongs -0.177 E-score.

Turning to GGAGTTTA, the binding signal worked out at 0.0723 E-score.

As to ACGGTTTC, the binding signal was -0.183 E-score. With ACTTTCTC the figure was 0.0481 E-score. To CACCGGCA belongs -0.173 E-score; to ACTGATTG, 0.0946 E-score; to TAGACCAA, -0.304 E-score. With CAGAGTAC the figure was -0.0856 E-score.

TTTCGAAA yielded a binding signal of -0.0872 E-score. With CGGCTACC the figure was -0.19 E-score.

As to CAGCTTAC, the binding signal was -0.168 E-score. To GCTACGAC belongs 0.041 E-score; to CTGAATGC, -0.197 E-score. The sequence CCAAGGTC displayed a binding signal of -0.214 E-score. With CCATGGGG the figure was -0.385 E-score; with CGCCACCC, -0.0952 E-score. The sequence CCCGTTTC showed a binding signal of 0.128 E-score. To CCGAAGGC belongs -0.155 E-score. To GACGGGTA belongs -0.0442 E-score; to CGCGTCCA, -0.247 E-score; to GACAGCAA, -0.158 E-score. To ATACTACG belongs 0.273 E-score; to GGACGGAA, -0.113 E-score; to CCGGAAGA, -0.255 E-score. AATGCCGG had a binding signal of -0.0678 E-score.

AAGACCCT had a binding signal of -0.29 E-score. With AACAGTCC the figure was -0.298 E-score; with AGAAGGTA, 0.116 E-score; with ACCCATTA, 0.151 E-score.

Sequence AAGAACCT had a binding signal of 0.0778 E-score.

In turn, AGATATTC came in with a binding signal of 0.231 E-score. With GAATAGAA the figure was 0.209 E-score; with CGTTTCGA, -0.111 E-score; with CTCTAGGA, -0.0777 E-score. To AGACGAAA belongs 0.153 E-score. In turn, ATTGCAAC returned a binding signal of 0.114 E-score. To AAAGGGGG belongs -0.158 E-score; to CTTGGTGC, -0.0814 E-score. AACTCCCT had a binding signal of 0.0599 E-score. To GGTTCAGA belongs -0.0943 E-score; to GCGACACC, -0.241 E-score. With AGGATTGA the figure was 0.0744 E-score; with AACATTAT, 0.12 E-score; with ACGGTTAC, 0.0305 E-score. With CTCCAGTC the figure was -0.194 E-score.

Consider GTGAGATA, for which the binding signal was 0.0844 E-score. The sequence CCGTGCAA displayed a binding signal of -0.0545 E-score.

In turn, CTTATCCA had a binding signal of 0.051 E-score. For GAATCAAC, the binding signal is -0.168 E-score.

For GCGCACAA, the binding signal is 0.101 E-score.

The sequence AGAAGAAG gave a binding signal of -0.0525 E-score. In the case of ATTCTATC, the binding signal was 0.414 E-score.

AGTAGACA registered a binding signal of 0.0265 E-score. With AGCAATCG, the binding signal turned out to be 0.111 E-score. With GAACCGTA the figure was 0.039 E-score. With CCCGTTGA the figure was -0.0711 E-score; with CCTACTGA, 0.0236 E-score; with ATATATAG, 0.379 E-score. As for GTTTCCTA, the binding signal was 0.107 E-score. Regarding CCTGGACG, the binding signal is -0.285 E-score.

Turning to AATGGTCA, the binding signal came to 0.122 E-score.

Turning to AATGTGGC, the binding signal is -0.231 E-score. With ACGCCTAT the figure was -0.000862 E-score; with CGGTCCCA, -0.0915 E-score. In the case of CACAAAGA, the binding signal was -0.0718 E-score. To AAGGTTAC belongs -0.0134 E-score.

CTGGTTGC had a binding signal of -0.26 E-score. To CATTAGAG belongs 0.105 E-score; to ACGGGCGA, 0.0647 E-score. To ACCAGTTG belongs 0.0756 E-score. With AGGCCCGA the figure was -0.232 E-score; with AAAGCCAC, -0.148 E-score. Take CACCCGGG: the binding signal is -0.272 E-score. To CCCACGTA belongs -0.037 E-score; to GCGCAACC, -0.0602 E-score. On to CCGACTAC, for which the binding signal was -0.213 E-score. To AGTACTCG belongs 0.0953 E-score; to AACTTTCT, 0.166 E-score. With GGCAGACC the figure was -0.296 E-score; with AGACTTTC, -0.0852 E-score. With CGTCTCGC the figure was -0.192 E-score; with TCGATGCA, 0.0428 E-score. Sequence CGAATTGA yielded a binding signal of -0.0573 E-score. As to ATGCCGGG, the binding signal was -0.0342 E-score. With CTCACCAA the figure was 0.00848 E-score; with ACTGTCTC, -0.108 E-score.

Values taken from PMC6212790.
